# Measured values from the supplement of paper PMC11417369.
# This is one part of the list.
# Test system: PfHDP1 homeodomain (GST-tagged)
# Test: gcPBM binding intensity (ln(normalized median fluorescence intensity)); higher = stronger DNA binding
# In short: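 GST-fused DNA-binding domains of P. falciparum, expressed in E. coli, were applied at about 25 μg on average for 1 h to an Agilent 4 × 180k array of primer-extended double-stranded 36-bp intergenic genomic probes and negative controls. Binding intensity is the highest Masliner-normalised natural-log median intensity across replicate spots of either probe orientation, measured with Alexa488 anti-GST antibody and a 488 nm scan.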
row,Sequence,gcPBM binding intensity (ln)
1,GCCTTCCTTCTAAATGCACACGGAAAGTATAAATGT [CACACA_site8797],10.1
2,GAATGAATCAATGTTTGTACTCAACAAATTATAAGG [XGTACX_site5122],6.45
3,TATATATAATACAGTATGCACTATTTTTATTAAAAA,8.06
4,CAATAATTTTTTAAATGTACTTTATTATAATTTAAT [XGTACX_site135],6.27
5,TATTAATTCTTAAATTTTTTTTTTTAATTCCTAGGA [CACACA_negctrl_site879],5.86
6,ACAACATTTCTCAAATGTACATAATATAATTTATAT [XGTACX_site3224],6.6
7,TTTTCTTACATCTTATAAAAAAAAATATATATTATA [GTGCAC_negctrl_site118],6.2
8,GTCTAACAACCAAACGCACACACACTAATAAAAAAA [CACACA_site8026],7.88
9,TTATATACATAAAAATGTACTTTTTATAAAATATAT [XGTACX_site8281],6.15
10,AAGTTAGTATTCTGCTGTACTTCTATATATAAGTGT [XGTACX_site7678],6.11
11,AAAATAATATTTAATACACACATAATTTTAATATAA [CACACA_site4588],6.4
12,TACTTATATTATTTTATTATTAAATTTAAAACGAAA [CACACA_negctrl_site736],6.41
13,ACAATAAAGAAGTGTACACATATATCAATAAAAAAA [CACACA_site5228],7.05
14,CAATCATGGGTTTACACACACATGCATGTGAAAATT [CACACA_site1349],6.49
15,AAAAAAAAAAAAAAAAAAAAAAAAATATATAATTTA [CACACA_negctrl_site583],7.28
16,AACCAAACAAATAAACGTACAAACATTACATATATT [XGTACX_site2265],6.42
17,GATGATAATAAATTTATATATAATATTATCTTATGT [GTGCAC_negctrl_site672],6.43
18,CATATTAAAAATTATTGTACATATTAATGAATATAA [XGTACX_site2734],6.11
19,ATTTTTGCAGTAATTAAATAGACAAAATGAAAAAAA [CACACA_negctrl_site1537],6.75
20,AAAAAAAAAAAAAGCACACATATAAATATGAATAAA [CACACA_site1393],6.26
21,AAAAAAAAAAAAAACACACACATACACCCAAAAATG [CACACA_site4223],6.8
22,ATATACACACAAAAACGTACACATATATATATGTAT [XGTACX_site2673],7.08

row,Sequence,gcPBM binding intensity (ln)
1,GGTATAATAATATATAGTACACACAAAAATGGAAGT [XGTACX_site7058],7.5
2,TAAAGAAAAAGAGAATGTACATGAGAAAAGTATACT [XGTACX_site7472],7.22
3,AAAAAAGATAATTATGCACACACACCCACCCACCCA [CACACA_site8825],9.38
4,AGAAAAAAAAAAAAATGTACAGACTTTTTCTTATAA [XGTACX_site6481],6.2
5,ACACAAAAAAATATATATATATATATATATATGTTA [CACACA_negctrl_site55],7.18
6,TTTTTATAAATACACATAAATATATATATATATATA [TGCATGCA_negctrl_site393],9.19
7,ATGCATTATTAGAATACACACCATACGCATATTTAT [CACACA_site4319],7.09
8,AAAAAAAAAAAAAAATGTACATTTTGAAAGGATATA [XGTACX_site8217],6.58
9,TAATAATAAAAATAAACACACATATATCTGTATTTA [CACACA_site5572],6.12
10,TATTTATAAACATACGCACACATTAAAATATATATA [CACACA_site6051],7.47
11,ATATATATATATATAGTGCATAAAATAAGTTTCTAA,9.54
12,GGTGGAAACAATTACACACACACAAAAAAAAAAAAA [CACACA_site3208],6.4
13,AATCACAACAGACACACACACAAAAAAAAAAAAAAA [CACACA_site1442],6.45
14,TTAATATAATAGAAGTGTACACACATATTTATGTGT [XGTACX_site6672],6.38
15,ATATGTTATATAAATATATATATATATATATATATA [TGCATGCA_negctrl_site594],9.41
16,TCAAAATTGCTTTGTTGTACTAATAAAATTTATTAC [XGTACX_site1121],6.26
17,TATATATACATACGTACACACAAATATTAAAATATA [CACACA_site1951],6.81
18,TATCTGTAAACATATTCACACACATAAATTCGCATA [CACACA_site8557],6.6
19,TACACTAATGACAGTTGTACTTTTATTCGATAGAAT [XGTACX_site738],6.19
20,TATATATATATAATATGTACATATATACATGCCTTG [XGTACX_site2791],8.74
21,TCGAAAATGACGAATGGTACAGTATGTATAAAAATA [XGTACX_site1258],6.5
22,ACTTTTTTTTTGTGTGTGCACTCGATTATATACATA [GTGCAC_site9846],10.2

row,Sequence,gcPBM binding intensity (ln)
1,ATATATTATATATGCGCACACACGAATTTTTTTTTT [CACACA_site2393],7.8
2,ATTAAAGTTATAAATTCACACATGTAAATGTATTTA [CACACA_site5279],6.3
3,GTTATATATGATGGAAGCACTTGGAAGAGGGAAATA [CACACA_negctrl_site1831],6.84
4,GATAAATATTTAATATGTACATATATTATATATATA [XGTACX_site117],7.28
5,TATATACACACCGTGTGTACATATACATTAACTGAA [XGTACX_site7120],6.96
6,AAAAATAAAAAAATAAAAAATAAAAAAATAAAAAAT [CACACA_negctrl_site1425],6.64
7,AAAAAGAAAAAGAGCACACAAAAATATTTAACCTTT [CACACA_site2747],6.54
8,ATATATATATGTATGTATATATATATATATATGTTT [CACACA_negctrl_site248],8.61
9,TTTCTTTTTTTTTGAAGTACATAAAAATATAAAAAA [XGTACX_site311],6.32
10,TAAATTTTTTCTTTTTGTACATATTTTAAAAATGTT [XGTACX_site7526],6.36
11,AATATTATAAAATATTGTACTTAAAAAATTATTAAA [XGTACX_site2469],6.13
12,ATGGCATAAATATATGCACACACAAAAAAAAAAAAA [CACACA_site7902],9
13,AAGGATAATAGGTACACATGCAATATTCATATATAC [TGCATGCA_site523],6.51
14,AAAAATATAAATGACACACACTTAAAAACAAAGAAA [CACACA_site4540],6.73
15,CTTATATATACGTGCACACATATATATAAGATATAT [CACACA_site1752],10.2
16,TTTTATTCCGTTTCAAAATAAGAAAAAAAAAAAAAT [CACACA_negctrl_site1199],6.25
17,TACTTCTCATTTGTTGTTGTATTTTAGGCATACCCT [XGTACX_negctrl_site385],6.88
18,TTTCACACTATTTCATGTACACATAAAATTATATAT [XGTACX_site8692],6.89
19,TAAATATAATAAAAGTGTACTTACACTTACATATAA [XGTACX_site1206],6.23
20,ATATAATAAGGTTAAGCACACATATTACATATATAA [CACACA_site9110],6.45
21,TTGTATATATTTCCTTGTACGTAATAATTCTTATTG [XGTACX_site3938],6.75
22,AACAGATAAAAGGGTACACACATATATACATGTACA [CACACA_site225],6.39

row,Sequence,gcPBM binding intensity (ln)
1,AATAATGAAAAATCAAATAACCTAAATTACAACTGT [XGTACX_negctrl_site65],6.47
2,TTTTATTTATCATACACACACAGAAAAAAAAAAAAA [CACACA_site158],6.7
3,CCTTTCCTTTTATAAGTGCATATAACAAATGTATAC [GTGCAC_site9872],8.03
4,GAATGTTTATTATATGCATGTTATATATATGAATAT [TGCATGCA_site4],6.6
5,TTATGATAATTTTGCACACACTTAGGAAAAATTATG [CACACA_site4949],10.9
6,AAATAATATATATACACACACACATATATATATACA [CACACA_site554],6.82
7,ACGTATATTTTTACATGTACATATGTAAAAAATTTT [XGTACX_site4587],6.52
8,TGTTTTTCATAGTGCACACATAACCAAAAATAGTAT [CACACA_site3150],10.2
9,AAATACTGTACAAAGGTGCATAAAAAGTGGGGCATA,9.07
10,TCAAAAGAAATAAAAACATGCATAAAAGTAAAAATA [TGCATGCA_site832],6.7
11,TATATATATATGTGCGTGCACGTTACCTTGCTGTTT,10.4
12,AAATTTAACAACTTCAAACACACAATATATATATAT [CACACA_site2092],8.81
13,TTTCCAAATACAACTACACACAAACAAAAGTTATAT [CACACA_site6544],6.86
14,TTTCTTATTTTGGATTGTACGTATATTTTTCATTTT [XGTACX_site224],6.81
15,AAAAAAAAAAAAAACACACACACAAATACAAATGGT [CACACA_site1721],6.94
16,TATAATAATAATTATACATGCATGAATATTTATATG [TGCATGCA_site811],6.46
17,AACAAAAAAAAAAAAAAAAAAAAAAAAAAAAAAATG [CACACA_negctrl_site1127],6
18,AATAAAAAAAATAGCATACACACATATATACATATA [CACACA_site659],6.22
19,ATGGACAAGTTAAACGCACACAAATATATACACCCA [CACACA_site8478],7.39
20,TTATATTTCAATCATATTGTCACAAGTCATATTTAT [GTGCAC_negctrl_site366],6.19
21,TTACACATGAGAAAATGTACATATAATAAAATATGT [XGTACX_site904],6.52
22,TTTTTTAAATGTATTAAAATTATATATATATATATA [GTGCAC_negctrl_site570],9.23
